B1: NEG024 (antibody)
heavy: EVQLVESGGGLVQPGGSLRLSCAASGFTFSDYYMAWVRQAPGKGLEWVANINQIAGSTYYLDSVRGRFTISRDNAKNSLYLQMNSLRAEDTAVYYCARGDYYGTTYWYFDVWGQGTTVTVSSASTKGPSVFPLAPSSKSTSGGTAALGCLVKDYFPEPVTVSWNSGALTSGVHTFPAVLQSSGLYSLSSVVTVPSSSLGTQTYICNVNHKPSNTKVDKRV[human IgG1 Fc omitted here]
light: EIVMTQSPATLSLSPGERATLSCRASQDISNYLNWYQQKPGQAPRLLIYYTSRLQSGIPARFSGSGSGTDYTLTISSLEPEDFAVYYCQQGKKLWSFGGGTKVEIKRTVAAPSVFIFPPSDEQLKSGTASVVCLLNNFYPREAKVQWKVDNALQSGNSQESVTEQDSKDSTYSLSSTLTLSKADYEKHKVYACEVTHQGLSSPVTKSFNRGEC
B2: 20376 (antibody)
heavy: QVQLVQSGAEVKKPGSSVKVSCKASGGTFSSYAISWVRQAPGQGLEWMGGIIPMSGRTTYAQKFQGRVTITADESTSTAYMELSSLRSEDTAVYYCARDYGPEAPDYGQSTSYFWYYAFDPWGQGTLVTVSSASTKGPSVFPLAPSSKSTSGGTAALGCLVKDYFPEPVTVSWNSGALTSGVHTFPAVLQSSGLYSLSSVVTVPSSSLGTQTYICNVNHKPSNTKVDKRV[human IgG1 Fc omitted here]
light: DIELTQPPSVSVSPGQTASITCSGDNIPSYFVHWYQQKPGQAPVLVIYDDNDRPSGIPERFSGSNSGNTATLTISGTQAEDEADYYCSSWDQDTVVFGGGTKLTVLGQPKAAPSVTLFPPSSEELQANKATLVCLISDFYPGAVTVAWKADSSPVKAGVETTTPSKQSNNKYAASSYLSLTPEQWKSHRSYSCQVTHEGSTVEKTVAPTECS

Legend:
[1] = tested on: GIST-T1, GIST430, NCI-H526, NCI-H1048, CMK11-5 and Uke-1 cells; assay: Proliferation assay of cKIT-MCC-DM1 ADCs on GIST, SCLC and AML cell lines, Example 11; format: cell-based; conditions: 5 to 8 days, IgG-MCC-DM1 conjugate as control (FIGS. 4-9)
Protocol: Following conjugation to the MCC-DM1 linker-payload, the ability of the antibody drug conjugates (ADCs) to inhibit the proliferation of AML, SCLC and GIST cell lines was determined. For a listing of the cells used in these experiments by supplier see Example 10 above.
Briefly, cells were cultured in a tissue culture incubator at 37° C. with 5% CO2 in culture medium as recommended by the supplier. On the day of the assay, cells were washed twice with PBS (Cellgro, Cat #21-031-CV, Corning Tewksbury, Mass.), prior to being treated with 0.1% trypsin-EDTA (in-house technical services) for 5 min and resuspended in the recommended culture medium. Cells were then counted and seeded in 96 well plates (Costar catalog #3603, Corning, Tewksbury, Mass.) at densities of 5,000 cells/well for AML and SCLC cells and 10,000 cells/well for GIST cells in 100 μl of cell culture medium. […] Following this incubation, 100 μl/well of Cell titer Glo® reagent (Promega catalog # G7573, Promega, Madison, Wis.) was added to the day 0 plates, which were then shaken gently for 2 min, incubated for 10 min, and the resulting luminescence intensity was measured using a Perkin Elmer Wallac Microbeta® Trilux plate reader (Perkin Elmer, Waltham, Mass.). […] Following this incubation period, relative cell viability was determined via the addition of Cell titer Glo® reagent as described above. […]

MO7e cells grown in SCF = assay: Mo7e proliferation in presence of SCF, Example 17; format: cell-based; conditions: 10 ng/ml SCF, 5 days, 0.0009-68 nM
Protocol: To evaluate the potential antagonistic properties of the naked antibodies and the ability of the antibody drug conjugates (ADCs) to inhibit the proliferation of a cKIT-expressing cell line, MO7e (DSMZ, Catalog # ACC-104, Braunschweig, Del.) were grown in the presence or absence of cKIT ligand, Stem Cell Factor (SCF), for survival. MO7e cells were grown in either 10 ng/ml human granulocyte-macrophage colony-stimulating factor GM-CSF (R&D Systems Cat#215-GM, Minneapolis, Minn.) or 10 ng/ml human Stem Cell Factor SCF (R&D Systems Cat#255-SC) prior to seeding in 96 well plates (Costar Cat #3904, Corning, Tewksbury, Mass.) at 5000 cells/well in 100 μl dilution medium. A duplicate plate was generated for a day 0 measurement and all plates were incubated in a tissue culture incubator at 37° C. with 5% CO2 overnight. […] Assay plates were shaken gently for 20 min and the resulting luminescence intensity was measured using a Perkin Elmer 1450 Microbeta TriLux® plate reader (Perkin Elmer, Waltham, Mass.). […] Following this incubation period, relative cell viability was determined via the addition of Cell titer Glo reagent as described above. The effect of the ADCs on cell proliferation was calculated using the average of the duplicates as follows: (% Inhibition=(ADC or Ab treated)/(untreated)*100) The % inhibition data was fitted to a 4-parameter logistic equation and IC50 values were determined.

mouse cKIT ECD = assay: SPR (Biacore 2000) affinity measurement; format: binding; conditions: 25° C.
Protocol: (§1) Affinity of the antibodies to cKIT species orthologues and also to cKIT was determined using SPR technology using a Biacore® 2000 instrument (GE Healthcare, Pittsburgh, Pa.) and with CM5 sensor chips.
(§2) Briefly, HBS-P (0.01 M HEPES, pH 7.4, 0.15 M NaCl, 0.005% Surfactant P20) supplemented with 2% Odyssey® blocking buffer (Li-Cor Biosciences, Lincoln, Nebr.) was used as the running buffer for all the experiments. The immobilization level and analyte interactions were measured by response unit (RU). Pilot experiments were performed to test and confirm the feasibility of the immobilization of the anti-human Fc antibody (Catalog number BR100839, GE Healthcare, Pittsburgh, Pa.) and the capture of the test antibodies.
(§3) For kinetic measurements, the experiments were performed in which the antibodies were captured to the sensor chip surface via the immobilized anti-human Fc antibody and the ability of the cKIT proteins to bind in free solution was determined Briefly, 25 μg/ml of anti-human Fc antibody at pH 5 was immobilized on a CM5 sensor chip through amine coupling at flow rate of 5 μl/minute on all two flow cells to reach 10,500 RUs. 0.1-1 μg/ml of test antibodies were then injected at 10 μl/min for 1 minute. Captured levels of the antibodies were generally kept below 200 RUs. Subsequently, 3.125-50 nM of cKIT receptor extracellular domains (ECD) were diluted in a 2-fold series and injected at a flow rate of 40 μl/min for 3 min over both reference and test flow cells. Table of tested ECDs is listed below. Dissociation of the binding was followed for 10 min. After each injection cycle, the chip surface was regenerated with 3 M MgCl2 at 10 μl/min for 30 s.

human cKIT ECD = target: T1, human cKIT ECD (Homo sapiens, UniProt P10721); assay: SPR (Biacore 2000) affinity measurement; format: binding; conditions: 25° C.
T1 construct: Human cKIT tr. variant 2, residues 26-520-TAG; made in house; host or cells: HEK293 derived cell lines (293FS), transient transfection
T1 sequence (P10721 with tags, fused parts or gaps isoform P10721-2): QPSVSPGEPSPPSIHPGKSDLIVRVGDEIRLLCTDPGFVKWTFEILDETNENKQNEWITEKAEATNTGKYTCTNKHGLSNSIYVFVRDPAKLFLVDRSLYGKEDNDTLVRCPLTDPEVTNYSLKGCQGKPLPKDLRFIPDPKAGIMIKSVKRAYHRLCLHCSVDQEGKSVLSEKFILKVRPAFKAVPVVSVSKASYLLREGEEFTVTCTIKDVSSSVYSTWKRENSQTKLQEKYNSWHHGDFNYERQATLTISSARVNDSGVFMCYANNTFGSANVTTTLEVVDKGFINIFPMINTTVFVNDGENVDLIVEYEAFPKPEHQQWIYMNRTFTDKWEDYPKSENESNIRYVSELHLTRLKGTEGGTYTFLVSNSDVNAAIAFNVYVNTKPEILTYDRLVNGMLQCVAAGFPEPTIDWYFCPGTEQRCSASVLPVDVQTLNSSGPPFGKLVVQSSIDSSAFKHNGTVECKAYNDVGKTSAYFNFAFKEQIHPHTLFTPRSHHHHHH
Protocol: as §1, §2, §3

[2] = tested on: cKIT phosphorylation in Mo7e (wild type cKIT) and GIST T-1 (mutant cKIT) cells; assay: Western blot of cKIT phosphorylation and downstream signaling (agonist evaluation); format: cell-based; conditions: 5 μg/ml, 15 minutes
Protocol: One well was designated as untreated (UT). Cells were harvested in 1 ml PBS. […] Lysates were then spun down for 40 mins at 12,000 rpm at 4° C. […] After protein transfer to membrane blots, membranes were blocked in TBST-5% milk at room temperature for 1 hour and then probed with primary antibodies overnight at 4° C. Blots were washed in TBST (4×5 mins) on the next day. Blots were incubated in the secondary antibody (goat-anti rabbit-HRP 1:30,000, Santa Cruz) for 1 hr at room temperature. Blots were washed in TBST (4×5 mins) and developed.

[3] = tested on: surface cKIT on GIST-T1 cells; assay: cKIT Ab-mediated internalization by flow cytometry; format: cell-based; conditions: 10 μg/ml, 30 min to 24 hr at 37° C.
Protocol: The kinetics of cKIT antibody mediated internalization was evaluated by treating with antibody in a cell monolayer using a temperature shift method and flow cytometry readout. GIST-T1 (kindly provided by Dr. Takahiro Taguchi, Kochi U., Japan) cells were seeded at 2.5×10E5 cells/well in five 12-well tissue culture treated plates (BD Falcon 353043). The cells were incubated in a tissue culture incubator at 37° C. with 5% CO2 overnight. The following day medium was removed and replaced with 450 μl fresh medium. […] All cells were incubated for 1 hr on ice, followed by two washes with 1 mL 1× Phosphate buffered saline (PBS) and resuspended in 500 μl cell culture medium. Plates #2-5 were transferred to 37° C. and harvested at time points; 30 min, 2 hr, 4 hr and 24 hr at 37° C. with 5% CO2. 100 μl of cell dissociation buffer (Gibco Cat#13150-016, Life Technologies, Carlsbad, Calif.) was added to plate#1 (4° C. binding control) and incubated at 37° C. until cells were detached. Cells were neutralized with 100 μl of medium and transferred to a 96 well V-bottom tissue culture treated plate (Costar 3894). […] The following day, all samples were analyzed using the BD FACSCanto II® equipment using a HTS system (BD Biosciences, San Jose, Calif.). Samples were analyzed with FlowJo software to obtain the Geometric Mean values of fluorescence for the Phycoerythrin channel. […]

| Molecule | reduction of cell proliferation [1] | inhibition of cell proliferation (MO7e cells grown in SCF) | Affinity mouse cKIT (nM) (mouse cKIT ECD) | Affinity human cKIT (nM) (human cKIT ECD) | downstream signaling (phospho ERK, phospho AKT) [2] | phosphorylation of cKIT ([2]; absence of ligand (SCF)) | internalization of surface cKIT [3] |
| --- | --- | --- | --- | --- | --- | --- | --- |
| B1 | very effective in reducing cell proliferation | do not inhibit cell proliferation | Not reactive | nanomolar level | – | – | – |
| B2 | – | – | cross reacted with mouse | nanomolar level | downstream signaling pathways are not affected | can mediate phosphorylation of cKIT in the absence of ligand (SCF) | rapidly internalized |

Reference: patent US20150320880A1, “ANTIBODY DRUG CONJUGATES” (NOVARTIS AG, priority 2013, published 2015)
